Measured values from publication PMC2175169 (The Journal of Cell Biology, 2000).

Target: authentic E1A 243R protein, purified from bacteria (adenovirus)
Assay: pull-down

B1: GST-p21 Δ[…] (domain or fragment)
chain: not shown
B1: binds.
